In all, about 310,000 compounds went through this assay and about 18,000 (5.8%) were called active. The inconclusive results got no clear call from the source; some entries with a clear call stand among them for comparison. Calls come from the whole dose curve; as a rule, active = well fitted inhibition curve with a large enough effect; inconclusive = small, poorly fitted or top-dose-only effect, or another doubt; inactive = no such curve, though single readings can be large or run the other way. No potency is given beside an inconclusive call; the fits are too rough.
experiment: Primary qHTS for delayed death inhibitors of the malarial parasite plastid, 48 hour incubation; details: P. falciparum luciferase growth in erythrocytes; series mostly up to 28.7 µM; activity change, negative = inhibition: at the top concentration
Method in brief: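 A one-generation exposure of luciferase-tagged malaria parasites in RPMI 1640/Albumax erythrocyte culture, 37 C and 5% CO2. Inhibition is inferred from decreased luminescence after adding detection reagent.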
% is set by controls: 0 for no effect and ±100 for the full control effect; potency is the fitted concentration of half-maximal effect; tags give direction and shape of the fitted curve.

SMILES | Potency | activity change, negative = inhibition
CCOC(=O)c1c(C#N)c(SCC(=O)Nc2ccc(OC)cc2)nc2c1CN(CC)CC2 | inconclusive [inhibitor, single point] | 
COC(=O)C1=NN(C(=O)c2ccc(C)cc2)C(O)(c2ccc(Cl)cc2)C1 (stereo not given) |  | inactive: 1.64%
Cc1ccc(-c2nn(Cc3ccccc3)cc2C(=O)N2CCN(c3ccccn3)CC2)cc1 | active: 13.1 µM | 
COc1ccccc1-c1cc(-c2ccccc2)nc(SC(C(N)=O)c2ccccc2)c1C#N (stereo not given) | inconclusive [inhibitor, partial curve, poor fit] | 
O=C(Nc1ccccc1F)C1CCCN(S(=O)(=O)c2ccccc2)C1 (stereo not given) |  | inactive: 26.8%
O=C(NC1CC1)c1c(O)c2ccccc2[nH]c1=O | inconclusive [inhibitor, single point] | 
CCOC(=O)c1ccc(NC(=O)CN2C(=O)C(CC)SC(CC)C2=O)cc1 (stereo not given) |  | inactive: 9.92%
O=S(=O)(Nc1ccc2cn[nH]c2c1)c1ccc(Cl)s1 |  | inactive: -1.15%
CC(=O)N1CCCc2cc(S(=O)(=O)N3CCCC(C)C3)ccc21 (stereo not given) |  | inactive: -12.3%
CCOC(=O)c1nn(-c2cccc(OC)c2)c2nc(CC)c(C#N)c(=O)n12 | inconclusive [inhibitor, single point] | 
CC(C1CC1)N(Cc1ccccc1)C(=S)Nc1cccc(C(F)(F)F)c1 (stereo not given) | inconclusive [inhibitor, single point] | 
O=C(N/N=C/c1ccncc1)C1CC1(c1ccccc1)c1ccccc1 (stereo not given) | inconclusive [inhibitor, partial curve, poor fit] | 
CCn1cnc2c1c(=O)n(Cc1ccc(C(=O)OC)cc1)c(=O)n2Cc1ccccc1 | inconclusive [inhibitor, partial curve] | 
Cc1cccc(C(=O)N[C@H](C(=O)Nc2cc(S(=O)(=O)N3CCCCC3)ccc2C)C(C)C)c1 | inconclusive [inhibitor, single point] | 
Cc1ccc(C(=O)Nc2ccc3c(c2)OCO3)cc1S(=O)(=O)N1CCCC1 | inconclusive [inhibitor, single point] | 
CC(C)(C)NC(=O)C(c1cccnc1)N(C(=O)c1ccc(Cl)nc1)C1CCCC1 (stereo not given) |  | inactive: 9.39%
S=C(Nc1ccc2nsnc2c1)N1CCCC1 | inconclusive [inhibitor, single point] | 
C=CCN=c1scc(C)n1/N=C/c1ccc(O)c(O)c1 | inconclusive [inhibitor, single point] | 
O=[N+]([O-])c1ccc(COc2cccc(CNc3ccc(F)cc3)c2)cc1 |  | inactive: 5.56%
CCN(CC)c1ccc(/C=N/N2CCN(Cc3ccc(C)cc3)CC2)c(O)c1 | inconclusive [inhibitor, full curve] | 

Source: PubChem BioAssay AID504832 (National Center for Advancing Translational Sciences (NCATS), 2011)
